The list shows a part of the results. Cut-off read from the data, not from the text of the source: active = 3.2 or more and inactive = the rest. The signal is at background level for most entries.

The values that follow come from the supplement of paper PMC10369915.
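Note: displayed peptides selected on beads carrying the immobilized SH2 domain, with library peptides lacking any tyrosine serving as negative controls.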

The target in the first experiment is SHP2 C-SH2 domain E139D. Briefly: enrichment score (SH2-bound / input frequency) (ratio); bacterial display of known human phosphotyrosine sites (pTyr-Var adds point mutants) read by sequencing; higher = stronger binding; tyrosines were phosphorylated by kinases first. The conditions noted are these: peptide library: pTyr-Var.
With QKINNYLTVPA [SLC9A1_Y683], the enrichment score is inactive: 0.607.
For the molecule PLQKTYNFNML [SLC4A1_Y553_V557M_YF], the enrichment score was inactive: 0.959.
MSSLPYMKMIF [SLC4A11_Y853]: the enrichment score was inactive: 2.08.
For the molecule LPHVIYCRLWR [SMAD2_Y128], the enrichment score is inactive: 0.482.
Same read-out and setting: then PKEEPYQMQEK [SLC5A3_Y565], with inactive: 0.536; and WASSSYRETPS [SORBS1_Y79_R74W], with inactive: 0.688.
In the case of GRLGEYDIDEV [SMS_Y134_V132G], the enrichment score was inactive: 0.92.
On to EDGCIYPATIA [SMN1_Y109], for which the enrichment score was inactive: 0.709.
Consider GPSTPYTKSKC [SMARCC2_Y324_R329C], for which the enrichment score was inactive: 0.595.
On the same count and under the same terms, then KDHPDYKFPPR [SOX10_Y171_Q174P_YF], with inactive: 0.859.
As to KDHPDYKFQLR [SOX10_Y171_P175L_YF], the enrichment score was inactive: 1.07.
Same read-out and setting: then DMQTLYVNTAA [SMCHD1_Y403], with inactive: 0.936; and ERSMSYSDESR [SMG1_Y143], with inactive: 0.482.
For the molecule DVFVSYDFGKS [SORL1_Y139_YF], the enrichment score was inactive: 1.06.
With ALIKAYVKAVA [SMN1_Y43_D44V], the enrichment score was inactive: 0.749.
Same read-out and setting: then PLQKTYNFNVL [SLC4A1_Y553_YF], with inactive: 1.44.
In the case of FPHVISARLWR [SMAD4_Y95_Y95S], the enrichment score is inactive: 0.354.
Same read-out and setting: then LTYHMYADPNF [SOS1_Y618], with inactive: 1.35.
On the same count and under the same terms, with FPPTHYIRRMP [SLC4A11_Y820_V824M_YF] the figure was inactive: 0.405.

The next experiment concerns the target SHP2 C-SH2 domain wild-type. Described as above. Particulars: peptide library: pTyr-Var.
On to QKINNYLTVPA [SLC9A1_Y683], for which the enrichment score was inactive: 0.566.
Still for that read-out and setting: with PLQKTYNFNML [SLC4A1_Y553_V557M_YF] the figure was inactive: 1.33; with MSSLPYMKMIF [SLC4A11_Y853], inactive: 2.05; with LPHVIYCRLWR [SMAD2_Y128], inactive: 0.35.
PKEEPYQMQEK [SLC5A3_Y565]: the enrichment score was inactive: 0.683.
For the molecule WASSSYRETPS [SORBS1_Y79_R74W], the enrichment score was inactive: 0.582.
With GRLGEYDIDEV [SMS_Y134_V132G], the enrichment score is inactive: 0.939.
Still for that read-out and setting: then EDGCIYPATIA [SMN1_Y109], with inactive: 0.589; and GPSTPYTKSKC [SMARCC2_Y324_R329C], with inactive: 0.673; and KDHPDYKFPPR [SOX10_Y171_Q174P_YF], with inactive: 0.69.
Still for that read-out and setting: with KDHPDYKFQLR [SOX10_Y171_P175L_YF] the figure was inactive: 0.806; with DMQTLYVNTAA [SMCHD1_Y403], inactive: 0.979.
On the same count and under the same terms, then ERSMSYSDESR [SMG1_Y143], with inactive: 0.536; and DVFVSYDFGKS [SORL1_Y139_YF], with inactive: 0.826; and ALIKAYVKAVA [SMN1_Y43_D44V], with inactive: 0.736.
Turning to PLQKTYNFNVL [SLC4A1_Y553_YF], the enrichment score is inactive: 1.03.
Still for that read-out and setting: with FPHVISARLWR [SMAD4_Y95_Y95S] the figure was inactive: 0.287; with LTYHMYADPNF [SOS1_Y618], inactive: 1.52.
On the same count and under the same terms, then FPPTHYIRRMP [SLC4A11_Y820_V824M_YF], with inactive: 0.216.

Another experiment has as its target SHP2 N-SH2 domain L43F. Described as above. Particulars: peptide library: pTyr-Var.
Consider QKINNYLTVPA [SLC9A1_Y683], for which the enrichment score is inactive: 0.902.
For the molecule PLQKTYNFNML [SLC4A1_Y553_V557M_YF], the enrichment score was inactive: 1.54.
Still for that read-out and setting: then MSSLPYMKMIF [SLC4A11_Y853], with active: 5.17; and LPHVIYCRLWR [SMAD2_Y128], with inactive: 0.359; and PKEEPYQMQEK [SLC5A3_Y565], with inactive: 0.926.
Take WASSSYRETPS [SORBS1_Y79_R74W]: the enrichment score is inactive: 0.643.
With GRLGEYDIDEV [SMS_Y134_V132G], the enrichment score was inactive: 1.05.
The same measure, in the same setting: with EDGCIYPATIA [SMN1_Y109] the figure was inactive: 0.77; with GPSTPYTKSKC [SMARCC2_Y324_R329C], inactive: 0.693; with KDHPDYKFPPR [SOX10_Y171_Q174P_YF], inactive: 0.583.
Consider KDHPDYKFQLR [SOX10_Y171_P175L_YF], for which the enrichment score was inactive: 1.05.
Same read-out and setting: with DMQTLYVNTAA [SMCHD1_Y403] the figure was inactive: 0.792; with ERSMSYSDESR [SMG1_Y143], inactive: 0.594.
Same read-out and setting: with DVFVSYDFGKS [SORL1_Y139_YF] the figure was inactive: 0.867; with ALIKAYVKAVA [SMN1_Y43_D44V], inactive: 0.765.
The same measure, in the same setting: with PLQKTYNFNVL [SLC4A1_Y553_YF] the figure was inactive: 1.2; with FPHVISARLWR [SMAD4_Y95_Y95S], inactive: 0.307.
In the case of LTYHMYADPNF [SOS1_Y618], the enrichment score was inactive: 1.86.
On to FPPTHYIRRMP [SLC4A11_Y820_V824M_YF], for which the enrichment score was inactive: 0.314.

The target of another experiment is SHP2 N-SH2 domain T42A. The experiment is described as above. The conditions noted are these: peptide library: pTyr-Var.
With QKINNYLTVPA [SLC9A1_Y683], the enrichment score was inactive: 0.864.
Same read-out and setting: with PLQKTYNFNML [SLC4A1_Y553_V557M_YF] the figure was inactive: 1.23.
Same read-out and setting: then MSSLPYMKMIF [SLC4A11_Y853], with active: 9.47; and LPHVIYCRLWR [SMAD2_Y128], with inactive: 0.401.
Still for that read-out and setting: with PKEEPYQMQEK [SLC5A3_Y565] the figure was inactive: 0.914; with WASSSYRETPS [SORBS1_Y79_R74W], inactive: 0.521; with GRLGEYDIDEV [SMS_Y134_V132G], inactive: 0.874.
Turning to EDGCIYPATIA [SMN1_Y109], the enrichment score was inactive: 0.6.
On the same count and under the same terms, with GPSTPYTKSKC [SMARCC2_Y324_R329C] the figure was inactive: 0.612.
On the same count and under the same terms, with KDHPDYKFPPR [SOX10_Y171_Q174P_YF] the figure was inactive: 0.541; with KDHPDYKFQLR [SOX10_Y171_P175L_YF], inactive: 0.956.
On the same count and under the same terms, with DMQTLYVNTAA [SMCHD1_Y403] the figure was inactive: 1.51; with ERSMSYSDESR [SMG1_Y143], inactive: 0.476.
On to DVFVSYDFGKS [SORL1_Y139_YF], for which the enrichment score was inactive: 0.749.
Still for that read-out and setting: then ALIKAYVKAVA [SMN1_Y43_D44V], with inactive: 0.623.
Still for that read-out and setting: with PLQKTYNFNVL [SLC4A1_Y553_YF] the figure was inactive: 1.3; with FPHVISARLWR [SMAD4_Y95_Y95S], inactive: 0.415; with LTYHMYADPNF [SOS1_Y618], active: 3.64.
With FPPTHYIRRMP [SLC4A11_Y820_V824M_YF], the enrichment score is inactive: 0.303.

Another experiment has as its target SHP2 N-SH2 domain T52S. Described as above. The conditions noted are these: peptide library: pTyr-Var.
In the case of QKINNYLTVPA [SLC9A1_Y683], the enrichment score is inactive: 0.947.
Same read-out and setting: then PLQKTYNFNML [SLC4A1_Y553_V557M_YF], with inactive: 1.13.
Still for that read-out and setting: then MSSLPYMKMIF [SLC4A11_Y853], with active: 6.44; and LPHVIYCRLWR [SMAD2_Y128], with inactive: 0.317.
On the same count and under the same terms, with PKEEPYQMQEK [SLC5A3_Y565] the figure was inactive: 0.824.
For WASSSYRETPS [SORBS1_Y79_R74W], the enrichment score was inactive: 0.539.
The same measure, in the same setting: with GRLGEYDIDEV [SMS_Y134_V132G] the figure was inactive: 1.13; with EDGCIYPATIA [SMN1_Y109], inactive: 0.871.
As for GPSTPYTKSKC [SMARCC2_Y324_R329C], the enrichment score is inactive: 0.558.
Same read-out and setting: then KDHPDYKFPPR [SOX10_Y171_Q174P_YF], with inactive: 0.627.
For the molecule KDHPDYKFQLR [SOX10_Y171_P175L_YF], the enrichment score is inactive: 0.933.
As to DMQTLYVNTAA [SMCHD1_Y403], the enrichment score is inactive: 0.869.
Consider ERSMSYSDESR [SMG1_Y143], for which the enrichment score was inactive: 0.633.
Regarding DVFVSYDFGKS [SORL1_Y139_YF], the enrichment score is inactive: 0.977.
Regarding ALIKAYVKAVA [SMN1_Y43_D44V], the enrichment score is inactive: 0.607.
Still for that read-out and setting: with PLQKTYNFNVL [SLC4A1_Y553_YF] the figure was inactive: 1.15.
Same read-out and setting: then FPHVISARLWR [SMAD4_Y95_Y95S], with inactive: 0.369; and LTYHMYADPNF [SOS1_Y618], with inactive: 1.69; and FPPTHYIRRMP [SLC4A11_Y820_V824M_YF], with inactive: 0.27.

Another experiment concerns the target SHP2 N-SH2 domain wild-type. The description is as above. Particulars: peptide library: pTyr-Var.
On to QKINNYLTVPA [SLC9A1_Y683], for which the enrichment score is inactive: 1.4.
Still for that read-out and setting: with PLQKTYNFNML [SLC4A1_Y553_V557M_YF] the figure was inactive: 1.53.
For the molecule MSSLPYMKMIF [SLC4A11_Y853], the enrichment score is inactive: 2.
Turning to LPHVIYCRLWR [SMAD2_Y128], the enrichment score was inactive: 0.403.
As for PKEEPYQMQEK [SLC5A3_Y565], the enrichment score is inactive: 1.59.
Regarding WASSSYRETPS [SORBS1_Y79_R74W], the enrichment score is inactive: 0.829.
On the same count and under the same terms, then GRLGEYDIDEV [SMS_Y134_V132G], with inactive: 1.07.
On the same count and under the same terms, with EDGCIYPATIA [SMN1_Y109] the figure was inactive: 0.881.
Still for that read-out and setting: with GPSTPYTKSKC [SMARCC2_Y324_R329C] the figure was inactive: 0.726.
For the molecule KDHPDYKFPPR [SOX10_Y171_Q174P_YF], the enrichment score is inactive: 0.786.
With KDHPDYKFQLR [SOX10_Y171_P175L_YF], the enrichment score is inactive: 0.947.
In the case of DMQTLYVNTAA [SMCHD1_Y403], the enrichment score was inactive: 0.844.
ERSMSYSDESR [SMG1_Y143]: the enrichment score was inactive: 0.651.
In the case of DVFVSYDFGKS [SORL1_Y139_YF], the enrichment score is inactive: 0.89.
On the same count and under the same terms, with ALIKAYVKAVA [SMN1_Y43_D44V] the figure was inactive: 1.01.
For PLQKTYNFNVL [SLC4A1_Y553_YF], the enrichment score was inactive: 1.09.
The same measure, in the same setting: with FPHVISARLWR [SMAD4_Y95_Y95S] the figure was inactive: 0.361.
For LTYHMYADPNF [SOS1_Y618], the enrichment score was inactive: 1.21.
Consider FPPTHYIRRMP [SLC4A11_Y820_V824M_YF], for which the enrichment score is inactive: 0.386.
